Measured values: the supplement of paper PMC10037445
The full ranking holds about 2,900 compounds; the median of “NF-kB SEAP reporter activity, fold change vs agonist alone” is about 0.99, and the highest 2% start at about 2.6. The list shows a part of the results.

Tests used:
RAW-Dual [1] = assay: NF-kB SEAP reporter activity, fold change vs agonist alone; higher = enhanced NF-kB activity; details: library stock concentration (final ~1000-fold dilution): 10 mM
Method in brief: (§1)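 Library stock was pin-tooled at 50 nL into 384-well plates of RAW-Dual macrophages (50,000 cells/well, DMEM), followed 1 h later by a PRR agonist, and the cells were kept at 37 °C, 5% CO2. Supernatant collected after 20 hours was read for IRF by QuantiLuc luminescence and for NF-κB by QuantiBlue absorbance at 620 nm. Reporter activity is fold change over agonist-alone wells, and a well counted as cytotoxic when its IncuCyte confluency was below 70% of agonist controls in both mask sets.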

RAW-Dual [2] = assay: NF-kB SEAP reporter activity, fold change vs agonist alone; cytotoxicity flag (confluency mask): not cytotoxic; higher = enhanced NF-kB activity
Method in brief: as §1

RAW-Dual [3] = assay: NF-kB SEAP reporter activity, fold change vs agonist alone; cytotoxicity flag (confluency mask): cytotoxic (confluency <70% of control); higher = enhanced NF-kB activity
Method in brief: as §1

[4] = cytotoxicity flag (confluency mask): not cytotoxic, agonist: Imiquimod (TLR7) […]
[5] = cytotoxicity flag (confluency mask): not cytotoxic, agonist: MPLA (TLR4) […]
[6] = agonist: ODN 1826 (TLR9) 0.5 ug/mL
[7] = agonist: Pam2CSK4 (TLR2/6) 0.1 ug/mL
[8] = agonist: Pam3CSK4 (TLR2/1) 0.1 ug/mL

Compound: C#CCN(C)Cc1ccccc1.Cl
- NF-kB SEAP reporter activity (RAW-Dual [1]; [4]): 1.15
- NF-kB SEAP reporter activity (RAW-Dual [1]; [5]): 0.987

Compound: C#CCN(C)Cc1ccccc1.Cl (library stock concentration (final ~1000-fold dilution): 10 mM)
- NF-kB SEAP reporter activity (RAW-Dual [2]; agonist: LPS (TLR4) 0.1 ug/mL): 0.896
- NF-kB SEAP reporter activity (RAW-Dual [2]; [6]): 0.98
- NF-kB SEAP reporter activity (RAW-Dual [2]; [7]): 0.887
- NF-kB SEAP reporter activity (RAW-Dual [2]; [8]): 1.16

Compound: Cc1ccnc2c1NC(=O)c1cccnc1N2C1CC1
- NF-kB SEAP reporter activity (RAW-Dual [1]; [4]): 0.896
- NF-kB SEAP reporter activity (RAW-Dual [1]; [5]): 0.88

Compound: Cc1ccnc2c1NC(=O)c1cccnc1N2C1CC1 (library stock concentration (final ~1000-fold dilution): 10 mM)
- NF-kB SEAP reporter activity (RAW-Dual [2]; agonist: LPS (TLR4) 0.1 ug/mL): 1.29
- NF-kB SEAP reporter activity (RAW-Dual [2]; [6]): 1.1
- NF-kB SEAP reporter activity (RAW-Dual [2]; [7]): 1.02
- NF-kB SEAP reporter activity (RAW-Dual [2]; [8]): 1.04

Compound: Cl.O=S(=O)(c1cccc2c(I)cccc12)N1CCCNCC1
- NF-kB SEAP reporter activity (RAW-Dual [1]; [4]): 0.797
- NF-kB SEAP reporter activity (RAW-Dual [1]; [5]): 1.12

Compound: Cl.O=S(=O)(c1cccc2c(I)cccc12)N1CCCNCC1 (library stock concentration (final ~1000-fold dilution): 10 mM)
- NF-kB SEAP reporter activity (RAW-Dual [2]; agonist: LPS (TLR4) 0.1 ug/mL): 0.746
- NF-kB SEAP reporter activity (RAW-Dual [2]; [6]): 0.722
- NF-kB SEAP reporter activity (RAW-Dual [2]; [7]): 0.626
- NF-kB SEAP reporter activity (RAW-Dual [2]; [8]): 0.568

Compound: Cc1[nH]c(=O)c(C#N)cc1-c1ccncc1
- NF-kB SEAP reporter activity (RAW-Dual [1]; [4]): 0.968
- NF-kB SEAP reporter activity (RAW-Dual [1]; [5]): 1.02

Compound: Cc1[nH]c(=O)c(C#N)cc1-c1ccncc1 (library stock concentration (final ~1000-fold dilution): 10 mM)
- NF-kB SEAP reporter activity (RAW-Dual [2]; agonist: LPS (TLR4) 0.1 ug/mL): 1.01
- NF-kB SEAP reporter activity (RAW-Dual [2]; [6]): 1.02
- NF-kB SEAP reporter activity (RAW-Dual [2]; [7]): 0.996
- NF-kB SEAP reporter activity (RAW-Dual [2]; [8]): 1.11

Compound: CS(=O)(=O)c1ccc(C2=C(c3ccccc3)C(=O)OC2)cc1
- NF-kB SEAP reporter activity (RAW-Dual [1]; [4]): 1.14
- NF-kB SEAP reporter activity (RAW-Dual [1]; [5]): 0.957

Compound: CS(=O)(=O)c1ccc(C2=C(c3ccccc3)C(=O)OC2)cc1 (library stock concentration (final ~1000-fold dilution): 10 mM)
- NF-kB SEAP reporter activity (RAW-Dual [2]; agonist: LPS (TLR4) 0.1 ug/mL): 1.27
- NF-kB SEAP reporter activity (RAW-Dual [2]; [6]): 1.12
- NF-kB SEAP reporter activity (RAW-Dual [2]; [7]): 1.1
- NF-kB SEAP reporter activity (RAW-Dual [2]; [8]): 1.08

Compound: CC(=O)c1cc([N+](=O)[O-])c(Sc2cccc(Cl)c2Cl)s1 (library stock concentration (final ~1000-fold dilution): 10 mM)
- NF-kB SEAP reporter activity (RAW-Dual [2]; agonist: LPS (TLR4) 0.1 ug/mL): 1.05
- NF-kB SEAP reporter activity (RAW-Dual [2]; [6]): 0.893
- NF-kB SEAP reporter activity (RAW-Dual [2]; [7]): 0.867
- NF-kB SEAP reporter activity (RAW-Dual [2]; [8]): 1.01

Compound: CC(=O)c1cc([N+](=O)[O-])c(Sc2cccc(Cl)c2Cl)s1
- NF-kB SEAP reporter activity (RAW-Dual [1]; [4]): 0.915
- NF-kB SEAP reporter activity (RAW-Dual [1]; [5]): 0.955

Compound: CNC(C)C(=O)NC(C(=O)N1CCCC1C(=O)NC(C(=O)NCCCCCCNC(=O)C(NC(=O)C1CCCN1C(=O)C(NC(=O)C(C)NC)C1CCCCC1)C(c1ccccc1)c1ccccc1)C(c1ccccc1)c1ccccc1)C1CCCCC1 (configuration not stated)
- NF-kB SEAP reporter activity (RAW-Dual [1]; [4]): 1.2
- NF-kB SEAP reporter activity (RAW-Dual [1]; [5]): 0.986

Compound: CNC(C)C(=O)NC(C(=O)N1CCCC1C(=O)NC(C(=O)NCCCCCCNC(=O)C(NC(=O)C1CCCN1C(=O)C(NC(=O)C(C)NC)C1CCCCC1)C(c1ccccc1)c1ccccc1)C(c1ccccc1)c1ccccc1)C1CCCCC1 (configuration not stated) (library stock concentration (final ~1000-fold dilution): 10 mM)
- NF-kB SEAP reporter activity (RAW-Dual [2]; agonist: LPS (TLR4) 0.1 ug/mL): 0.851
- NF-kB SEAP reporter activity (RAW-Dual [2]; [6]): 1.01
- NF-kB SEAP reporter activity (RAW-Dual [2]; [7]): 0.893
- NF-kB SEAP reporter activity (RAW-Dual [2]; [8]): 0.89

Compound: COC(=O)C(CC(C)C)NC(=O)c1ccc(NCC(N)CS)cc1-c1cccc2ccccc12.O=C(O)C(F)(F)F (configuration not stated) (library stock concentration (final ~1000-fold dilution): 10 mM)
- NF-kB SEAP reporter activity (RAW-Dual [2]; agonist: LPS (TLR4) 0.1 ug/mL): 3.82
- NF-kB SEAP reporter activity (RAW-Dual [2]; [6]): 2.38
- NF-kB SEAP reporter activity (RAW-Dual [2]; [7]): 1.5
- NF-kB SEAP reporter activity (RAW-Dual [2]; [8]): 2.19

Compound: COC(=O)C(CC(C)C)NC(=O)c1ccc(NCC(N)CS)cc1-c1cccc2ccccc12.O=C(O)C(F)(F)F (configuration not stated)
- NF-kB SEAP reporter activity (RAW-Dual [1]; [4]): 1.25
- NF-kB SEAP reporter activity (RAW-Dual [1]; [5]): 2.31

Compound: Cc1ccc(/C(=C\CN2CCCC2)c2cccc(/C=C/C(=O)O)n2)cc1 (library stock concentration (final ~1000-fold dilution): 10 mM)
- NF-kB SEAP reporter activity (RAW-Dual [2]; agonist: LPS (TLR4) 0.1 ug/mL): 1.28
- NF-kB SEAP reporter activity (RAW-Dual [2]; [6]): 1.04
- NF-kB SEAP reporter activity (RAW-Dual [2]; [7]): 0.928
- NF-kB SEAP reporter activity (RAW-Dual [2]; [8]): 0.913

Compound: Cc1ccc(/C(=C\CN2CCCC2)c2cccc(/C=C/C(=O)O)n2)cc1
- NF-kB SEAP reporter activity (RAW-Dual [1]; [4]): 1.02
- NF-kB SEAP reporter activity (RAW-Dual [1]; [5]): 1.02

Compound: O=C(OC1OC2COC(=O)c3cc(O)c(O)c(O)c3-c3c(cc(O)c(O)c3O)C(=O)OC(C2O)C1O)c1cc(O)c(O)c(O)c1 (configuration not stated) (library stock concentration (final ~1000-fold dilution): 10 mM)
- NF-kB SEAP reporter activity (RAW-Dual [2]; agonist: LPS (TLR4) 0.1 ug/mL): 1.34
- NF-kB SEAP reporter activity (RAW-Dual [2]; [6]): 0.874
- NF-kB SEAP reporter activity (RAW-Dual [2]; [7]): 0.809
- NF-kB SEAP reporter activity (RAW-Dual [2]; [8]): 0.393

Compound: O=C(OC1OC2COC(=O)c3cc(O)c(O)c(O)c3-c3c(cc(O)c(O)c3O)C(=O)OC(C2O)C1O)c1cc(O)c(O)c(O)c1 (configuration not stated)
- NF-kB SEAP reporter activity (RAW-Dual [1]; [4]): 0.783
- NF-kB SEAP reporter activity (RAW-Dual [1]; [5]): 1.08

Compound: O=Cc1ccc(O)c(O)c1 (library stock concentration (final ~1000-fold dilution): 10 mM)
- NF-kB SEAP reporter activity (RAW-Dual [2]; agonist: LPS (TLR4) 0.1 ug/mL): 0.968
- NF-kB SEAP reporter activity (RAW-Dual [2]; [6]): 0.76
- NF-kB SEAP reporter activity (RAW-Dual [2]; [7]): 0.663
- NF-kB SEAP reporter activity (RAW-Dual [2]; [8]): 0.652

Compound: O=Cc1ccc(O)c(O)c1
- NF-kB SEAP reporter activity (RAW-Dual [1]; [4]): 0.702
- NF-kB SEAP reporter activity (RAW-Dual [1]; [5]): 1.09

Compound: COc1cc2ncc(-c3ccccc3)nc2cc1OC
- NF-kB SEAP reporter activity (RAW-Dual [1]; [4]): 1.16
- NF-kB SEAP reporter activity (RAW-Dual [1]; [5]): 1.39

Compound: COc1cc2ncc(-c3ccccc3)nc2cc1OC (library stock concentration (final ~1000-fold dilution): 10 mM)
- NF-kB SEAP reporter activity (RAW-Dual [2]; agonist: LPS (TLR4) 0.1 ug/mL): 1.78
- NF-kB SEAP reporter activity (RAW-Dual [2]; [6]): 1.28
- NF-kB SEAP reporter activity (RAW-Dual [2]; [7]): 0.915
- NF-kB SEAP reporter activity (RAW-Dual [2]; [8]): 0.864

Compound: COc1cc(Nc2ncc(F)c(Nc3ccc4c(n3)NC(=O)C(C)(C)O4)n2)cc(OC)c1OC
- NF-kB SEAP reporter activity (RAW-Dual [1]; cytotoxicity flag (confluency mask): cytotoxic (confluency <70% of control), agonist: Imiquimod (TLR7) […]): 1.09
- NF-kB SEAP reporter activity (RAW-Dual [1]; cytotoxicity flag (confluency mask): cytotoxic (confluency <70% of control), agonist: MPLA (TLR4) […]): 0.935

Compound: COc1cc(Nc2ncc(F)c(Nc3ccc4c(n3)NC(=O)C(C)(C)O4)n2)cc(OC)c1OC (library stock concentration (final ~1000-fold dilution): 10 mM)
- NF-kB SEAP reporter activity (RAW-Dual [3]; agonist: LPS (TLR4) 0.1 ug/mL): 0.494
- NF-kB SEAP reporter activity (RAW-Dual [3]; [6]): 0.706
- NF-kB SEAP reporter activity (RAW-Dual [3]; [7]): 0.343
- NF-kB SEAP reporter activity (RAW-Dual [3]; [8]): 0.287

Compound: O=C(O)CCC(=O)Nc1ccc(Br)cn1 (library stock concentration (final ~1000-fold dilution): 10 mM)
- NF-kB SEAP reporter activity (RAW-Dual [2]; agonist: LPS (TLR4) 0.1 ug/mL): 1.32
- NF-kB SEAP reporter activity (RAW-Dual [2]; [6]): 1.08
- NF-kB SEAP reporter activity (RAW-Dual [2]; [7]): 1.12
- NF-kB SEAP reporter activity (RAW-Dual [2]; [8]): 1.01
